The supplement of paper PMC4166925
± gives the standard deviation of the averaged measurements. Over roughly 33,000 sequences, “E-score (dimensionless, -0.5 to 0.5)” has its median near -0.049; the highest 2% begin near 0.37. Some of the results follow.

The sequences below were run on T1, PmTbr T-box DNA-binding domain (GST fusion) (assay: PBM E-score of 8-mer (E-score (dimensionless, -0.5 to 0.5)); Tbr is Tbrain of the sea star Patiria miniata (Pm) or the sea urchin Strongylocentrotus purpuratus (Sp); higher = stronger binding preference; most listed sequences are background and not binding sites). Conditions: the construct has about 5 more residues each side.
T1 sequence: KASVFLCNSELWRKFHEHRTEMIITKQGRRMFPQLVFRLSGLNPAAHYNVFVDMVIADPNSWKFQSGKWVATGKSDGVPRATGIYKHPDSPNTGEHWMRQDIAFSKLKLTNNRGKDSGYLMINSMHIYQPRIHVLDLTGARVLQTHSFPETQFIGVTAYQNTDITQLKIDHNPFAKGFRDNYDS
Experimental: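 Universal protein-binding microarray (Agilent AMADID 016060, 60-bp probes with a 35-bp variable region) incubated with 200 nM GST-fused Patiria miniata Tbr T-box DNA-binding domain (residues 272-466) in PBS pH 7.5. Scored for every ungapped 8-mer (given with its reverse complement) by the Universal PBM Analysis Suite as E-score (modified Wilcoxon-Mann-Whitney enrichment, range -0.5 to 0.5; >0.45 counts as bound) and Z-score of median probe intensity. Two replicate arrays (datasets 1 and 2).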

Sequence | PBM E-score of 8-mer
ACTCACTG | -0.0228 ± 0.028
CAACGGCC | 0.107 ± 0.051
AACAACAA | 0.0602 ± 0.04
CAATGCGA | 0.0627 ± 0.02
CGCCCAAC | 0.0472 ± 0.046
ACCGCTGG | 0.0975 ± 0.0091
AGGGACAG | -0.136 ± 0.046
AGAGTAAT | -0.0574 ± 0.05
TCATTGCA | -0.111 ± 0.14
GAACTCGC | 0.2583 ± 0.0016
TCTCAACA | 0.125 ± 0.071
CCCGCGCC | 0.112 ± 0.038
AGAACGTA | -0.214 ± 0.057
AATTAGCG | 0.313 ± 0.018
ACTTCCAG | 0.0388 ± 0.00075
AGTAGCCG | -0.167 ± 0.002
CTAGCTCC | -0.0784 ± 0.035
AGGTCCGA | -0.203 ± 0.063
GAAGAGGA | -0.173 ± 0.037
ACTCTTCT | -0.264 ± 0.02
AATGTCTC | -0.174 ± 0.042
ATTCTAAG | -0.0503 ± 0.0011

Sequence | PBM E-score of 8-mer
CCCTCCCC | 0.0115 ± 0.024
AACAATGA | 0.0586 ± 0.015
CCACCCCG | 0.235 ± 0.033
CCTCAAAC | -0.0981 ± 0.017
AGACGACA | -0.00785 ± 0.026
ATATCTGA | -0.307 ± 0.032
ACCATAAG | -0.205 ± 0.034
GAGATTGA | -0.0419 ± 0.051
CATTCCCA | -0.0846 ± 0.088
ATGCCGCA | -0.0107 ± 0.049
ACCTGGAA | 0.218 ± 0.051
TTCACAAA | 0.204 ± 0.039
CAGGGATA | -0.326 ± 0.061
CAGACGTA | -0.231 ± 0.053
GACCAAGA | -0.0649 ± 0.057
CCCAGCTA | -0.183 ± 0.034
GCTCATCC | -0.161 ± 0.023
AAACCGCC | -0.0851 ± 0.023
ACGCCCCC | -0.101 ± 0.068
CGCACGTA | 0.13 ± 0.011
TTACCTAA | -0.0657 ± 0.073
GGGCGTAC | -0.212 ± 0.088

Sequence | PBM E-score of 8-mer
GAATATTA | 0.0144 ± 0.0076
CCAATGCG | -0.127 ± 0.068
ACCATTTA | -0.0394 ± 0.087
CTGCGGTA | -0.278 ± 0.07
GTTGAAGA | -0.00415 ± 0.042
AACACTTA | 0.42 ± 0.019
GCGAAAAC | 0.27 ± 0.057
CATGGATA | -0.114 ± 0.075
AATAACGT | -0.105 ± 0.05
ATAACAGG | 0.156 ± 0.033
CGTTAACA | 0.372 ± 0.044
CGGGAGTC | -0.155 ± 0.0094
GAGCTAGC | -0.00632 ± 0.026
AAGATGAG | -0.231 ± 0.067
CTCGCTAC | 0.0679 ± 0.05
GATAGTGA | 0.2087 ± 0.0014
CCAAGGGG | -0.193 ± 0.035
GAGCCATA | -0.21 ± 0.0091
AAACCATA | -0.137 ± 0.061
AAGAGCAC | -0.201 ± 0.013
CCACGCGA | 0.115 ± 0.034
CGTGTCGC | 0.295 ± 0.023

Sequence | PBM E-score of 8-mer
ACAGTCAG | -0.169 ± 0.02
ACAATTAA | 0.06793 ± 0.00057
CACCAACC | 0.149 ± 0.056
AGAAGCGA | 0.0714 ± 0.048
CAATCAGA | -0.157 ± 0.01
CACACTGG | 0.156 ± 0.039
TGTAGTAA | -0.169 ± 0.022
AATTGAAA | -0.311 ± 0.028
CATCATTC | -0.0552 ± 0.075
ATGTGAAG | 0.142 ± 0.035
GATAATCA | 0.0401 ± 0.032
CACTGAGG | 0.0486 ± 0.064
ATTCTGAC | 0.122 ± 0.042
CCAGAATC | -0.0577 ± 0.0096
GCTCTAAC | 0.0585 ± 0.0059
CAGAAGTA | -0.223 ± 0.0053
CTCGGCTC | -0.036 ± 0.046
GCAGCCAA | 0.0542 ± 0.051
CATGGGGC | -0.268 ± 0.11
ATGAGTGA | 0.0877 ± 0.014
